According to the supplement of paper PMC12217912:
The other results are listed elsewhere or left out. The full chains were built here from the parent and the listed change. Inactive controls read about 0.05.

B1: TEV protease; numbered along this chain (parent)
chain: MGESLFKGPRDYNPISSSICHLTNESDGHTTSLYGIGFGPFIITNKHLFRRNNGTLVVQSLHGVFKVKDTTTLQQHLVDGRDMIIIRMPKDFPPFPQKLKFREPQREERICLVTTNFQTKSMSSMVSDTSCTFPSGDGIFWKHWIQTKDGQCGSPLVSTRDGFIVGIHSASNFTNTNNYFTSVPKNFMELLTNQEAQQWVSGWRLNADSVLWGGHKVFMVKPEEPFQPVKEATQL

Variants of: B1
Assay: raw area under fraction-flipped curve 0-4 h after induction (AUC4h, not background-subtracted), DNA-recorder readout of cleavage of the substrate (dimensionless); higher = more cleavage of the substrate by the protease variant
Settings: temperature: 34 °C; time window: 0-4 h after rhamnose induction
Protocol: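 In vivo DNA recorder in E. coli TOP10(DE3) ΔrhaA at 34 °C. Each TEVp single-site mutant (parent TEVp 0) is paired with a single-site variant of the 7-mer TEVs (canonical ENLYFQ|S). The substrate sits between flexible linkers in a Bxb1-sfGFP-TEVs-SsrA fusion, so cleavage stabilises Bxb1 and speeds flipping of a recombination array, read by NGS. The value is the raw area under the fraction-flipped curve over 0-4 h after rhamnose induction (AUC4h), with ≥20 reads per time point. It is not background-subtracted; inactive controls average about 0.047.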
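Also: Bxb1 expression induced with 0.2% (w/v) L-rhamnose at OD600 near 0.5, cultures sampled hourly, flipped fraction per protease–substrate barcode pair counted by paired-end Illumina sequencing.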

| Variant | area with substrate ENLYFQA | area with substrate ENLYFQC | area with substrate ENLYFQF | area with substrate ENLYFQG | area with substrate ENLYFQH | area with substrate ENLYFQK | area with substrate ENLYFQL | area with substrate ENLYFQM | area with substrate ENLYFQN | area with substrate ENLYFQQ | area with substrate ENLYFQR | area with substrate ENLYFQS | area with substrate ENLYFQT | area with substrate ENLYFQV | area with substrate ENLYFQY | area with substrate ENLYFQD | area with substrate ENLYFQE | area with substrate ENLYFQI | area with substrate ENLYFQP | area with substrate ENLYFQW |
| --- | --- | --- | --- | --- | --- | --- | --- | --- | --- | --- | --- | --- | --- | --- | --- | --- | --- | --- | --- | --- |
| MGESLFKGPRDYNPISSSICHLTNESDGHTTSLYGIGFQPFIITNKHLFRRNNGTLVVQSLHGVFKVKDTTTLQQHLVDGRDMIIIRMPKDFPPFPQKLKFREPQREERICLVTTNFQTKSMSSMVSDTSCTFPSGDGIFWKHWIQTKDGQCGSPLVSTRDGFIVGIHSASNFTNTNNYFTSVPKNFMELLTNQEAQQWVSGWRLNADSVLWGGHKVFMVKPEEPFQPVKEATQL [G39Q] | 0.0356 | 0.0512 | 0.0172 | 0.0478 | 0.0499 | 0.0422 | 0.0493 | 0.0351 | 0.0441 | 0.0388 | 0.0395 | 0.0447 | 0.0234 | 0.0678 | 0.0483 | – | – | – | – | – |
| MGESLFKGPRDYNPISSSICHLTNESDGHTTSLYGIGFGPWIITNKHLFRRNNGTLVVQSLHGVFKVKDTTTLQQHLVDGRDMIIIRMPKDFPPFPQKLKFREPQREERICLVTTNFQTKSMSSMVSDTSCTFPSGDGIFWKHWIQTKDGQCGSPLVSTRDGFIVGIHSASNFTNTNNYFTSVPKNFMELLTNQEAQQWVSGWRLNADSVLWGGHKVFMVKPEEPFQPVKEATQL [F41W] | 0.0974 | 0.0793 | 0.0642 | 0.0569 | 0.0523 | 0.0666 | 0.0584 | – | 0.0508 | 0.0728 | 0.0723 | 0.0795 | 0.0606 | 0.0397 | 0.0636 | 0.0492 | 0.0616 | 0.0542 | 0.0501 | 0.0714 |
| MGESLFKGPRDYNPISSSICHLTNESDGHTTSLYGIGFGPFCITNKHLFRRNNGTLVVQSLHGVFKVKDTTTLQQHLVDGRDMIIIRMPKDFPPFPQKLKFREPQREERICLVTTNFQTKSMSSMVSDTSCTFPSGDGIFWKHWIQTKDGQCGSPLVSTRDGFIVGIHSASNFTNTNNYFTSVPKNFMELLTNQEAQQWVSGWRLNADSVLWGGHKVFMVKPEEPFQPVKEATQL [I42C] | 0.0927 | 0.0947 | – | 0.0857 | 0.0783 | 0.0555 | 0.0568 | 0.0867 | 0.0669 | – | 0.0511 | 0.0867 | 0.0618 | 0.0611 | 0.0682 | 0.0647 | – | 0.0519 | 0.048 | 0.0419 |
| MGESLFKGPRDYNPISSSICHLTNESDGHTTSLYGIGFGPFYITNKHLFRRNNGTLVVQSLHGVFKVKDTTTLQQHLVDGRDMIIIRMPKDFPPFPQKLKFREPQREERICLVTTNFQTKSMSSMVSDTSCTFPSGDGIFWKHWIQTKDGQCGSPLVSTRDGFIVGIHSASNFTNTNNYFTSVPKNFMELLTNQEAQQWVSGWRLNADSVLWGGHKVFMVKPEEPFQPVKEATQL [I42Y] | 0.0541 | 0.0548 | 0.0475 | 0.0581 | 0.0477 | 0.0485 | 0.0428 | 0.0487 | 0.0465 | 0.0438 | 0.0451 | 0.0499 | 0.0453 | 0.0446 | 0.036 | – | – | 0.0256 | – | 0.0448 |
| MGESLFKGPRDYNPISSSICHLTNESDGHTTSLYGEGFGPFIITNKHLFRRNNGTLVVQSLHGVFKVKDTTTLQQHLVDGRDMIIIRMPKDFPPFPQKLKFREPQREERICLVTTNFQTKSMSSMVSDTSCTFPSGDGIFWKHWIQTKDGQCGSPLVSTRDGFIVGIHSASNFTNTNNYFTSVPKNFMELLTNQEAQQWVSGWRLNADSVLWGGHKVFMVKPEEPFQPVKEATQL [I36E] | 0.0538 | 0.0509 | – | 0.0455 | 0.0473 | 0.0744 | 0.0391 | 0.0467 | 0.0429 | 0.055 | 0.0511 | 0.0477 | 0.0482 | 0.0441 | 0.0403 | 0.0508 | – | 0.0589 | 0.0385 | 0.0515 |
| MGESLFKGPRDYNPISSSICHLTNESDGHTTSLYGAGFGPFIITNKHLFRRNNGTLVVQSLHGVFKVKDTTTLQQHLVDGRDMIIIRMPKDFPPFPQKLKFREPQREERICLVTTNFQTKSMSSMVSDTSCTFPSGDGIFWKHWIQTKDGQCGSPLVSTRDGFIVGIHSASNFTNTNNYFTSVPKNFMELLTNQEAQQWVSGWRLNADSVLWGGHKVFMVKPEEPFQPVKEATQL [I36A] | 0.0939 | 0.0838 | 0.0497 | 0.0781 | – | 0.0592 | 0.0599 | 0.0637 | 0.0469 | 0.0821 | 0.0465 | 0.0722 | – | – | 0.0301 | 0.0522 | – | 0.0427 | 0.0454 | 0.0773 |
| MGESLFKGPRDYNPISSSICHLTNESDGHTTSLYGRGFGPFIITNKHLFRRNNGTLVVQSLHGVFKVKDTTTLQQHLVDGRDMIIIRMPKDFPPFPQKLKFREPQREERICLVTTNFQTKSMSSMVSDTSCTFPSGDGIFWKHWIQTKDGQCGSPLVSTRDGFIVGIHSASNFTNTNNYFTSVPKNFMELLTNQEAQQWVSGWRLNADSVLWGGHKVFMVKPEEPFQPVKEATQL [I36R] | 0.0395 | 0.0584 | 0.0581 | 0.0506 | 0.0369 | 0.0576 | 0.0584 | 0.0518 | 0.0564 | – | 0.0425 | 0.0481 | 0.0492 | 0.0447 | – | – | – | 0.0513 | – | 0.0506 |
| MGESLFKGPRDYNPISSSICHLTNESDGHTTSLYGVGFGPFIITNKHLFRRNNGTLVVQSLHGVFKVKDTTTLQQHLVDGRDMIIIRMPKDFPPFPQKLKFREPQREERICLVTTNFQTKSMSSMVSDTSCTFPSGDGIFWKHWIQTKDGQCGSPLVSTRDGFIVGIHSASNFTNTNNYFTSVPKNFMELLTNQEAQQWVSGWRLNADSVLWGGHKVFMVKPEEPFQPVKEATQL [I36V] | 0.0887 | 0.105 | 0.0335 | 0.0898 | 0.0696 | – | – | 0.0838 | 0.0824 | 0.0699 | 0.0507 | 0.0976 | 0.0722 | – | 0.0711 | 0.0999 | – | 0.04 | 0.0642 | 0.0665 |
